Among all 48,000 compounds or so, about 550 (1.1%) were called active. Roughly 4% stayed inconclusive and do not appear here. Rule as the data show it: active = potency below about 15 µM; inconclusive = mostly about 16 µM to 33 µM; inactive = weaker than that. The list shows a part of the results.
Potency is read from the fitted curve at half-maximal effect.

This assay concerns the target Lysosomal acid glucosylceramidase (Homo sapiens) (UniProt P04062). As to the kind of experiment: Glucocerebrosidase.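 Also: the screen sought inhibitors.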 The note with it: purified enzyme, resorufin glucoside fluorescence (screen aimed at inhibitors), 20 min. The method in brief: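 Wild-type enzyme at 0.2 nM final in 50mM citric acid/KH2PO4, 10mM sodium taurocholate, 0.01% tween-20, pH 5.9, with resorufin beta-D-glucopyranoside at 30 uM final. Compounds titrated, 20 min at RT, red fluorescence read; AC50 from titration.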
Sequence of UniProt P04062 (P04062 whole entry, looked up): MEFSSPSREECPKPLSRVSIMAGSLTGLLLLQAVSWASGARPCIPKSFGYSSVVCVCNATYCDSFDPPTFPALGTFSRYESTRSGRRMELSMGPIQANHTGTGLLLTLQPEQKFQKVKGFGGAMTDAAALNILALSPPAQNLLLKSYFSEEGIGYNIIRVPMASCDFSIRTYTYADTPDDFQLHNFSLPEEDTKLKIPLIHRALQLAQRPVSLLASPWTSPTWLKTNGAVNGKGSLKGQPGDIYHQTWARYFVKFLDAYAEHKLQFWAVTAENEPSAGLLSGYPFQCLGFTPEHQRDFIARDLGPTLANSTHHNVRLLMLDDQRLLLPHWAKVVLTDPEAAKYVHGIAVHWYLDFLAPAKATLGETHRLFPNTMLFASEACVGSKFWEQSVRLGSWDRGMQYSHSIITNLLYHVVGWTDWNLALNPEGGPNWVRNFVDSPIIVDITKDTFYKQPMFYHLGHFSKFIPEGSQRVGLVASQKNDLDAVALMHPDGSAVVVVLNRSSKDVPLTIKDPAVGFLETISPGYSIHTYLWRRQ
For the molecule `CC12CCC(C(=O)NCCCn3ccnc3)(OC1=O)C2(C)C` (centres undefined), the Potency was inactive: > 76.9 µM.

`CN1CCN(C(=O)c2ccc3c(=O)n(Cc4ccc(Cl)cc4)c(=S)[nH]c3c2)CC1`: the Potency is inactive: > 76.9 µM. Under `CCOC(=O)C1=C(C)NC(=O)NC1C1CC=CCC1` (centres undefined) stands inactive: > 76.9 µM; under `OC(COCc1ccc(Cl)cc1)CN1CCN(CC(O)COCc2ccc(Cl)cc2)CC1` (centres undefined), inactive: > 76.9 µM. On to `O=C1CCc2nc3sc4c(c3c(=O)n2N1)CCCC4`, for which the Potency was inactive: > 76.9 µM.

In the case of `O=C1C(c2ccc(F)cc2)N(C2CCCCC2)C(=O)CN1C1CCCC1` (centres undefined), the Potency was inactive: > 76.9 µM.

`Cc1cccc(N=C(N2CCOCC2)P(=O)(N2CCOCC2)N2CCOCC2)c1`: the Potency was inactive: > 76.9 µM. To `CC(C)NC(=O)c1cccc(Cn2cc(Cl)cn2)c1` belongs inactive: > 76.9 µM; to `CN(C)c1ccc(C2C=C(c3ccc(Cl)cc3OC(F)F)Nc3ncnn32)cc1` (centres undefined), inactive: > 76.9 µM; to `Cc1ccccc1-n1c(SCC(=O)N2CCOCC2)nc(O)cc1=O`, inactive: > 76.9 µM. To `Nc1cc(C(=O)OCC(=O)NCc2ccco2)ccc1Cl` belongs inactive: > 76.9 µM; to `CCCn1c(NCc2cccc(OC)c2O)nc2ccccc21`, inactive: > 76.9 µM; to `Cc1cc(C)nc(SCc2nnc(SCC(=O)Nc3ccc(C)c(C)c3)n2Cc2ccco2)n1`, inactive: > 76.9 µM. In the case of `CCOC(=O)c1ccccc1NC(=O)CSc1nnnn1C1CCCCC1`, the Potency was inactive: > 76.9 µM. To `CCOc1cc(C2C(C(=O)N3CCCCC3)=C(C)NC3=C2C(=O)CC(C)(C)C3)ccc1O` (centres undefined) belongs inactive: > 76.9 µM; to `CCOC(=O)N1CCN(c2cc(=O)n(-c3ccc(OCC)cc3)c(=O)[nH]2)CC1`, inactive: > 76.9 µM; to `CC(C)C(=O)Nc1ccc(NC(=O)c2ccccc2Cl)nc1`, inactive: > 76.9 µM.

`FC(F)(F)c1nc2nncn2c2c1CCCCC2`: the Potency is inactive: > 76.9 µM. `O=c1[nH]c(SCc2ccc(Cl)cc2)nc2c1CCC2`: the Potency was inactive: > 76.9 µM. Regarding `Nc1cc(=O)nc(SCc2ccccc2)n1Cc1ccco1`, the Potency is inactive: > 76.9 µM. For the molecule `Cc1ccc(NC(=O)c2oc3ccccc3c2NC(=O)c2ccc3c(c2)OCO3)cc1`, the Potency was inactive: > 76.9 µM. `CCOc1cc(NC(=O)C2CC2)c(OCC)cc1NC(=O)c1cccnc1`: the Potency is inactive: > 76.9 µM. Take `O=C(c1ccco1)N1CCN(C(=O)C2Cc3ccccc3CN2S(=O)(=O)c2ccc(F)cc2)CC1` (centres undefined): the Potency is inactive: > 76.9 µM. Consider `CCC1CCCCN1S(=O)(=O)c1ccc(S(=O)(=O)N(Cc2cccs2)C2CC2)cc1` (centres undefined), for which the Potency is inactive: > 76.9 µM.
